Results from PubChem BioAssay AID624417 (National Center for Advancing Translational Sciences (NCATS), 2012).
The whole screen tested about 410,000 compounds, of which about 6,400 (1.6%) were called active. The inconclusive results got no clear call from the source; some entries with a clear call stand among them for comparison. The call rests on the fitted dose curve; in most records, active means well fitted inhibition curve with a large enough effect; inconclusive means small, poorly fitted or top-dose-only effect; inactive means no such curve, though single readings can be large or run the other way. Potencies of inconclusive entries are left out as doubtful fits.

target: Glucagon-like peptide 1 receptor (Homo sapiens) (UniProt P43220); test: qHTS of GLP-1 Receptor Inverse Agonists (Inhibition Mode); settings: HEK293 GLP-1R CRE-luciferase, luminescence, 24 h, GLP-1R form is constitutively active; series mostly up to 38.3 µM; further: nearly all actives have a fitted effect of over 55% in size
Sequence of UniProt P43220 (P43220 whole entry, looked up): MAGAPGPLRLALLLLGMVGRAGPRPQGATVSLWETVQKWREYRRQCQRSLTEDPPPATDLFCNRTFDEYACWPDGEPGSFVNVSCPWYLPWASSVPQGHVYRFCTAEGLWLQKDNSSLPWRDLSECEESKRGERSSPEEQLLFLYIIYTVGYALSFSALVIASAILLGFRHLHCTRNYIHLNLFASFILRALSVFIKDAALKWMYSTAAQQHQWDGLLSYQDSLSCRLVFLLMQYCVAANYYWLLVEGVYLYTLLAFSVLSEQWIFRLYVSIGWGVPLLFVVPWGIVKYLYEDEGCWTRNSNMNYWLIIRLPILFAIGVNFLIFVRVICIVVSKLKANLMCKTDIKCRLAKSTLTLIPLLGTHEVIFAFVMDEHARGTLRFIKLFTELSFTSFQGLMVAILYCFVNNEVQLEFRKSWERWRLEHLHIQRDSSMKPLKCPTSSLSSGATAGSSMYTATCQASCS
Summary of the method: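 Using stably transfected HEK293 (constitutively active GLP-1R, cAMP-luciferase reporter), compounds were incubated 24 hr and luciferase measured by luminescence.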
Potency means the concentration at half of the fitted maximal effect; tags describe the fitted curve by direction and shape.

Structure (SMILES) | Potency
CCN1C(C(=O)c2ccccc2)=C(OC(=O)c2ccc(OC)cc2)c2ccccc2S1(=O)=O | inconclusive [inhibitor, single point]
COc1ccc(OC)c(NC(=O)CSc2nnc3ccc(-c4ccccn4)nn23)c1 | inactive
O=C1/C(=C/c2cccnc2)SC(=S)N1c1ccc(O)cc1 | inconclusive [inhibitor, single point]
CCC(c1nnnn1Cc1ccc2c(c1)OCO2)N1CCN(c2ccccc2)CC1 (stereo unspecified) | inconclusive [inhibitor, partial curve, poor fit]
CCN(C(=O)CN1C(=O)COc2ccc(S(=O)(=O)N3CCCCCC3)cc21)c1cccc(C)c1 | inconclusive [inhibitor, partial curve, poor fit]
Cc1ccc(S(=O)(=O)N2CCCCC2C(=O)NCc2ccco2)cc1 (stereo unspecified) | inconclusive [inhibitor, single point]
Cn1c(=O)n(C)c2cc(NC(=O)CCl)ccc21 | inconclusive [inhibitor, single point]
Cc1ccc(C)c(S(=O)(=O)N2CCN(C(=O)CCC(=O)NCc3ccc(Cl)cc3Cl)CC2)c1 | inconclusive [inhibitor, partial curve, poor fit]
O=C(c1ccc(S(=O)(=O)c2cccc(Cl)c2)c([N+](=O)[O-])c1)N1CCN(Cc2ccccc2)CC1 | inconclusive [inhibitor, partial curve, poor fit]
Cc1ccccc1C(=O)Nc1nc2nc(-c3ccccc3)cc(=O)n2[nH]1 | inactive
Cc1ccc(C(C)C)c(OCC(=O)Nc2ccccc2N2CCN(C)CC2)c1 | inconclusive [inhibitor, partial curve, poor fit]
CCc1nc2ccccc2n1CC(=O)N1CCN(S(=O)(=O)c2cccc(C(F)(F)F)c2)CC1 | inactive
CN1CCC(N(C)C(=O)c2ccccc2Nc2ccc(SC(F)F)cc2)CC1 | inconclusive [inhibitor, partial curve, poor fit]
Cc1cccn2c(=O)c3cc(C(=O)NC4CCCC4)c(=N)n(CCCN4CCOCC4)c3nc12 | inconclusive [inhibitor, single point]
CC1=C(C(=O)OCc2ccccc2)C(c2ccccc2Cl)NC(=O)N1C (stereo unspecified) | inconclusive [inhibitor, partial curve, poor fit]
CCCCn1c(N)c(N(CC(C)C)C(=O)c2cccc(S(=O)(=O)N3CCCCC3)c2)c(=O)[nH]c1=O | inactive
O=C(Nc1cccc(Cl)c1)OCc1cnc(Cl)s1 | inconclusive [inhibitor, single point]
Cc1ccc(NC(=O)Nc2nnc(N(C)C3CCCCC3)s2)c(Cl)c1 | inactive
Cc1cccc(C)c1OCc1cc(C(=O)N2CCN(c3ccc(F)cc3)CC2)no1 | inconclusive [inhibitor, partial curve, poor fit]
CCc1cc2cc3c(cc2nc1SCC(=O)N1CCN(C(=O)c2ccco2)CC1)OCO3 | inconclusive [inhibitor, partial curve, poor fit]
COc1ccc(-c2nnc(COc3ccc4ccccc4c3)o2)cc1OC | inconclusive [inhibitor, single point]
CCOc1ccc(CN(C)CC(=O)NCc2ccc(F)cc2)cc1 | inconclusive [inhibitor, partial curve]

Structure (SMILES) | Potency
Nc1nc(SCC(=O)Nc2ncc(C(F)(F)F)cc2Cl)n[nH]1 | inactive
C/C(=C\C(=O)c1ccc(C)cc1)Nc1cccc(O)c1 | inactive
CCc1ccc(C(C#N)=CC=Cc2ccccc2)cc1 | inconclusive [inhibitor, single point]
CCOc1ccccc1CNC(=O)C1CCN(c2nc3ccccc3o2)CC1 | inconclusive [inhibitor, single point]
CCOC(=O)CN1C(=O)N[C@@H](c2cccc(C(F)(F)F)c2)[C@H](C(C)=O)[C@H]1C | inactive
Cc1cc(C(F)(F)F)n2[nH]c(=O)c(N=Nc3ccccc3)c2n1 | inactive
O=C(Nc1ccccc1)Nc1ncc(C(F)(F)F)cc1Cl | inactive
O=C(CNC(=O)c1sc2ccccc2c1Cl)NCc1cccc(C(F)(F)F)c1 | inconclusive [inhibitor, partial curve, poor fit]
COC(=O)c1c(-c2ccc(S(C)(=O)=O)cc2)sc2ccc(OC)cc12 | inactive
COc1ccc(/C=C/C(=O)Nc2ccc3c(c2)CCC3)cc1OC | inconclusive [inhibitor, partial curve, poor fit]
Cc1ccc(C(=O)Nc2ccc(Cl)cc2C(F)(F)F)c(Cl)c1 | inconclusive [inhibitor, single point]
COc1ccccc1OCCOCCN1CCCC1 | inactive
COc1ccc(-c2ccc(/C=N/N3C(=O)C4C5C=CC(C6CC56)C4C3=O)o2)c([N+](=O)[O-])c1 (stereo unspecified) | inconclusive [inhibitor, full curve]
CCC(C)(C)NC(=O)C1CCN(S(=O)(=O)c2c(C)noc2/C=C/c2ccc(C)cc2)CC1 | inactive
CCc1nc2c(OCc3cc(Cl)cc(Cl)c3)cccn2c1N(C=O)Cc1ccccc1 | inconclusive [inhibitor, single point]
CC[N+]1(C)CCC(O)(c2ccc(OC)cc2)C(C(=O)c2ccc(OC)cc2)C1 (stereo unspecified) | inconclusive [inhibitor, single point]
COc1ccc(C)cc1NC(=O)C1COc2ccccc2C1 (stereo unspecified) | inconclusive [inhibitor, partial curve, poor fit]
COc1cccc(N2CCN(C(=O)CN(c3cc(C)cc(C)c3)S(=O)(=O)c3c(C)noc3C)CC2)c1 | inconclusive [inhibitor, partial curve, poor fit]
CCOC(=O)C1CCCN(S(=O)(=O)c2cc3c4c(c2)CC(=O)N4CCC3)C1 (stereo unspecified) | inactive
Cc1ccc(C)c(OCc2cc(C(=O)NC3CCOC(C)(C)C3)no2)c1 (stereo unspecified) | inactive
O=C(NCc1ccc2c(c1)OCO2)C1CCN(Cc2cnn(-c3ccccc3)c2-n2cccc2)CC1 | inconclusive [inhibitor, partial curve, poor fit]
Cc1cccc(NS(=O)(=O)c2cccc(C(=O)NCC3(N4CCOCC4)CCCCC3)c2)c1 | inconclusive [inhibitor, partial curve, poor fit]

Structure (SMILES) | Potency
FC(F)(F)c1cccc(NC(=S)N2CCCCCC2)c1 | inconclusive [inhibitor, single point]
COC(=O)c1ccc(NC(=O)COc2cccc3c2OC(C)(C)C3)cc1 | inconclusive [inhibitor, single point]
O=C(NCCCO)C(=O)NCC(c1ccc2c(c1)OCO2)N1CCOCC1 (stereo unspecified) | inactive
CC(=O)NC12CC3CC(C1)CC(C(=O)Nc1nc4c(C)cccc4s1)(C3)C2 | inconclusive [inhibitor, partial curve]
CO/N=C(/CNC(=O)c1cccc(Cl)c1)c1ccc(Cl)cc1 | active: 11.2 µM
O=C(Nc1ccc2c(c1)OCCO2)C(C1CC1)N1CCN(c2ccc(C(F)(F)F)cn2)CC1 (stereo unspecified) | inconclusive [inhibitor, single point]
C/C(CC(=O)NCc1ccc(Cl)cc1)=N\NC(=O)COc1ccc(C)cc1Br | inconclusive [inhibitor, partial curve, poor fit]
Cc1nn(Cc2ccccc2)c(C)c1C(=O)OCC(=O)c1cc(C)n(CC(F)(F)F)c1C | inconclusive [inhibitor, partial curve, poor fit]
Cc1ccc(S(=O)(=O)N(CC(O)CN2CCOCC2)c2cc(Cl)ccc2Cl)cc1 (stereo unspecified) | inconclusive [inhibitor, partial curve, poor fit]
CCN(CC)C(=O)Cc1c(OC)ccc2cc(Br)ccc12 | inconclusive [inhibitor, single point]
COc1ccc(OCc2cc(C(=O)NCC(C)Oc3cccnc3)no2)c(Cl)c1 (stereo unspecified) | inconclusive [inhibitor, single point]
CCC(=O)Nc1cnc(NC(=O)c2cccc(F)c2)cc1C | inconclusive [inhibitor, single point]
c1csc(-c2nnc(NC3CCCCC3)c3ccccc23)c1 | inconclusive [inhibitor, single point]
CC(C)C(NC(=O)C1CC(=O)N(Cc2ccccc2)C1)c1nc2ccccc2[nH]1 (stereo unspecified) | inactive
CCn1cc(SCC(=O)N2CCc3ccccc32)c2ccccc21 | inconclusive [inhibitor, single point]
CCOC(=O)CSc1ncnc2c1cnn2-c1ccccc1 | inactive
CCn1c(COc2ccccc2OC)nc2ccccc21 | inactive
Cc1cc(-c2ccccc2)nc(N/N=C/c2ccccc2)n1 | inconclusive [inhibitor, partial curve, poor fit]
COc1cccc(C(=O)NCc2cn3ccccc3n2)c1 | inactive
COc1ccc(C(=O)N/N=C/c2cc(Br)ccc2O)cc1OC | inconclusive [inhibitor, partial curve, poor fit]
COc1ccccc1-c1cccc(-c2nc(C(=O)Nc3nccs3)cc3c2[C@@H](CCO)N(C(C)=O)C3)c1 | inconclusive [inhibitor, single point]
CN(C)S(=O)(=O)c1cccc(NC(=O)COC(=O)c2cn(-c3ccccc3)nc2-c2ccccc2)c1 | inconclusive [inhibitor, partial curve, poor fit]
